# Measured values as given in the supplement of paper PMC8728848.
# The list shows a part of the results.
# Key:
# Assay in all cases: glycan array binding signal (z-score within array); higher = stronger binding
# Settings in all cases: glycan notation: IUPAC condensed, linker removed; mutation: R120K
# [1] = molecular target: GlcNAc(b1-3)Gal(b1-3)GalNAc
# Procedure, shortened: (§1)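 From the Consortium for Functional Glycomics database, 3228 arrays were curated, keeping only those whose protein sequence was available. Binding is given as a within-array Z-score averaged across arrays sharing a protein sequence and across linkers. Negative Z-scores can be read as non-binding.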
# [2] = molecular target: GlcNAc(b1-3)Gal(b1-4)Glc
# Procedure, shortened: as §1
# [3] = molecular target: GlcNAc(b1-3)Gal(b1-4)GlcNAc
# Procedure, shortened: as §1
# [4] = molecular target: GlcNAc(b1-3)Gal(b1-4)GlcNAc(b1-2)Man(a1-3)[GlcNAc(b1-3)Gal(b1-4)GlcNAc(b1-2)Man(a1-6)]Man(b1-4)GlcNAc(b1-4)GlcNAc
# Procedure, shortened: as §1
# [5] = molecular target: GlcNAc(b1-3)Gal(b1-4)GlcNAc(b1-2)Man(a1-3)[GlcNAc(b1-3)Gal(b1-4)GlcNAc(b1-2)Man(a1-6)]Man(b1-4)GlcNAc(b1-4)[Fuc(a1-6)]GlcNAc
# Procedure, shortened: as §1
# [6] = molecular target: GlcNAc(b1-3)Gal(b1-4)GlcNAc(b1-2)[GlcNAc(b1-3)Gal(b1-4)GlcNAc(b1-6)]Man(a1-6)[GlcNAc(b1-3)Gal(b1-4)GlcNAc(b1-2)Man(a1-3)]Man(b1-4)GlcNAc(b1-4)GlcNAc
# Procedure, shortened: as §1
# [7] = molecular target: GlcNAc(b1-3)Gal(b1-4)GlcNAc(b1-3)Gal(b1-4)GlcNAc
# Procedure, shortened: as §1
# [8] = molecular target: GlcNAc(b1-3)Gal(b1-4)GlcNAc(b1-3)Gal(b1-4)GlcNAc(b1-2)Man(a1-3)[GlcNAc(b1-3)Gal(b1-4)GlcNAc(b1-3)Gal(b1-4)GlcNAc(b1-2)Man(a1-6)]Man(b1-4)GlcNAc(b1-4)GlcNAc
# Procedure, shortened: as §1
# [9] = molecular target: GlcNAc(b1-3)Gal(b1-4)GlcNAc(b1-3)Gal(b1-4)GlcNAc(b1-2)Man(a1-3)[GlcNAc(b1-3)Gal(b1-4)GlcNAc(b1-3)Gal(b1-4)GlcNAc(b1-2)Man(a1-6)]Man(b1-4)GlcNAc(b1-4)[Fuc(a1-6)]GlcNAc
# Procedure, shortened: as §1
# [10] = molecular target: GlcNAc(b1-3)Gal(b1-4)GlcNAc(b1-3)Gal(b1-4)GlcNAc(b1-2)[GlcNAc(b1-3)Gal(b1-4)GlcNAc(b1-3)Gal(b1-4)GlcNAc(b1-6)]Man(a1-6)[GlcNAc(b1-3)Gal(b1-4)GlcNAc(b1-3)Gal(b1-4)GlcNAc(b1-2)Man(a1-3)]Man(b1-4)GlcNAc(b1-4)[Fuc(a1-6)]GlcNAc
# Procedure, shortened: as §1
# [11] = molecular target: GlcNAc(b1-3)Gal(b1-4)GlcNAc(b1-3)Gal(b1-4)GlcNAc(b1-3)Gal(b1-4)GlcNAc(b1-2)Man(a1-3)[GlcNAc(b1-3)Gal(b1-4)GlcNAc(b1-3)Gal(b1-4)GlcNAc(b1-3)Gal(b1-4)GlcNAc(b1-2)Man(a1-6)]Man(b1-4)GlcNAc(b1-4)GlcNAc
# Procedure, shortened: as §1
# [12] = molecular target: GlcNAc(b1-3)Gal(b1-4)GlcNAc(b1-3)Gal(b1-4)GlcNAc(b1-3)Gal(b1-4)GlcNAc(b1-2)Man(a1-3)[GlcNAc(b1-3)Gal(b1-4)GlcNAc(b1-3)Gal(b1-4)GlcNAc(b1-3)Gal(b1-4)GlcNAc(b1-2)Man(a1-6)]Man(b1-4)GlcNAc(b1-4)[Fuc(a1-6)]GlcNAc
# Procedure, shortened: as §1
# [13] = molecular target: GlcNAc(b1-3)Gal(b1-4)GlcNAc(b1-3)Gal(b1-4)GlcNAc(b1-3)Gal(b1-4)GlcNAc(b1-2)[GlcNAc(b1-3)Gal(b1-4)GlcNAc(b1-3)Gal(b1-4)GlcNAc(b1-3)Gal(b1-4)GlcNAc(b1-6)]Man(a1-6)[GlcNAc(b1-3)Gal(b1-4)GlcNAc(b1-3)Gal(b1-4)GlcNAc(b1-3)Gal(b1-4)GlcNAc(b1-2)Man(a1-3)]Man(b1-4)GlcNAc(b1-4)[Fuc(a1-6)]GlcNAc
# Procedure, shortened: as §1
# [14] = molecular target: GlcNAc(b1-3)Gal(b1-4)GlcNAc(b1-3)Gal(b1-4)GlcNAc(b1-3)Gal(b1-4)GlcNAc(b1-3)Gal(b1-4)GlcNAc(b1-2)Man(a1-3)[GlcNAc(b1-3)Gal(b1-4)GlcNAc(b1-3)Gal(b1-4)GlcNAc(b1-3)Gal(b1-4)GlcNAc(b1-3)Gal(b1-4)GlcNAc(b1-2)Man(a1-6)]Man(b1-4)GlcNAc(b1-4)GlcNAc
# Procedure, shortened: as §1
# [15] = molecular target: GlcNAc(b1-3)Gal(b1-4)GlcNAc(b1-3)Gal(b1-4)GlcNAc(b1-3)Gal(b1-4)GlcNAc(b1-3)Gal(b1-4)GlcNAc(b1-2)Man(a1-3)[GlcNAc(b1-3)Gal(b1-4)GlcNAc(b1-3)Gal(b1-4)GlcNAc(b1-3)Gal(b1-4)GlcNAc(b1-3)Gal(b1-4)GlcNAc(b1-2)Man(a1-6)]Man(b1-4)GlcNAc(b1-4)[Fuc(a1-6)]GlcNAc
# Procedure, shortened: as §1
# [16] = molecular target: GlcNAc(b1-3)Gal(b1-4)GlcNAc(b1-3)Gal(b1-4)GlcNAc(b1-3)Gal(b1-4)GlcNAc(b1-3)Gal(b1-4)GlcNAc(b1-2)[GlcNAc(b1-3)Gal(b1-4)GlcNAc(b1-3)Gal(b1-4)GlcNAc(b1-3)Gal(b1-4)GlcNAc(b1-3)Gal(b1-4)GlcNAc(b1-6)]Man(a1-6)[GlcNAc(b1-3)Gal(b1-4)GlcNAc(b1-3)Gal(b1-4)GlcNAc(b1-3)Gal(b1-4)GlcNAc(b1-3)Gal(b1-4)GlcNAc(b1-2)Man(a1-3)]Man(b1-4)GlcNAc(b1-4)[Fuc(a1-6)]GlcNAc
# Procedure, shortened: as §1
# [17] = molecular target: GlcNAc(b1-3)Gal(b1-4)GlcNAc(b1-3)Gal(b1-4)GlcNAc(b1-3)GalNAc
# Procedure, shortened: as §1
# [18] = molecular target: GlcNAc(b1-3)Gal(b1-4)GlcNAc(b1-3)GalNAc
# Procedure, shortened: as §1
# [19] = molecular target: GlcNAc(b1-3)Gal(b1-4)GlcNAc(b1-3)[GlcNAc(b1-3)Gal(b1-4)GlcNAc(b1-3)]GalNAc
# Procedure, shortened: as §1
# [20] = molecular target: GlcNAc(b1-3)Gal(b1-4)GlcNAc(b1-6)[Gal(b1-3)]GalNAc
# Procedure, shortened: as §1
# [21] = molecular target: GlcNAc(b1-3)Gal(b1-4)GlcNAc(b1-6)[GlcNAc(b1-3)Gal(b1-3)]GalNAc
# Procedure, shortened: as §1
# [22] = molecular target: GlcNAc(b1-3)Gal(b1-4)GlcNAc(b1-6)[GlcNAc(b1-3)]Gal(b1-4)GlcNAc
# Procedure, shortened: as §1
# [23] = molecular target: GlcNAc(b1-3)GalNAc
# Procedure, shortened: as §1
# [24] = molecular target: GlcNAc(b1-3)Man
# Procedure, shortened: as §1
# [25] = molecular target: GlcNAc(b1-3)[GlcNAc(b1-4)][GlcNAc(b1-6)]GlcNAc
# Procedure, shortened: as §1
# [26] = molecular target: GlcNAc(b1-3)[GlcNAc(b1-6)]Gal(b1-4)GlcNAc
# Procedure, shortened: as §1
# [27] = molecular target: GlcNAc(b1-3)[GlcNAc(b1-6)]GalNAc
# Procedure, shortened: as §1
# [28] = molecular target: GlcNAc(b1-4)Gal(b1-4)GlcNAc
# Procedure, shortened: as §1
# [29] = molecular target: GlcNAc(b1-4)GlcNAc
# Procedure, shortened: as §1
# [30] = molecular target: GlcNAc(b1-4)GlcNAc(b1-4)GlcNAc
# Procedure, shortened: as §1
# [31] = molecular target: GlcNAc(b1-4)GlcNAc(b1-4)GlcNAc(b1-4)GlcNAc(b1-4)GlcNAc
# Procedure, shortened: as §1
# [32] = molecular target: GlcNAc(b1-4)GlcNAc(b1-4)GlcNAc(b1-4)GlcNAc(b1-4)GlcNAc(b1-4)GlcNAc
# Procedure, shortened: as §1
# [33] = molecular target: GlcNAc(b1-4)[GlcNAc(b1-6)]GalNAc
# Procedure, shortened: as §1
# [34] = molecular target: GlcNAc(b1-6)Gal(b1-4)GlcNAc
# Procedure, shortened: as §1
# [35] = molecular target: GlcNAc(b1-6)GalNAc
# Procedure, shortened: as §1
# [36] = molecular target: GlcNAc6S(b1-3)Gal(b1-4)GlcNAc
# Procedure, shortened: as §1
# [37] = molecular target: Kdn(a2-3)Gal(b1-3)GalNAc
# Procedure, shortened: as §1
binder,measurement,setting,value
"Siglec-9 (Homo sapiens), Q9Y336 (protein) MLLLLLPLLWGRERAEGQTSKLLTMQSSVTVQEGLCVHVPCSFSYPSHGWIYPGPVVHGYWFREGANTDQDAPVATNNPARAVWEETRDRFHLLGDPHTKNCTLSIRDARRSDAGRYFFKMEKGSIKWNYKHHRLSVNVTALTHRPNILIPGTLESGCPQNLTCSVPWACEQGTPPMISWIGTSVSPLDPSTTRSSVLTLIPQPQDHGTSLTCQVTFPGASVTTNKTVHLNVSYPPQNLTMTVFQGDGTVSTVLGNGSSLSLPEGQSLRLVCAVDAVDSNPPARLSLSWRGLTLCPSQPSNPGVLELPWVHLRDAAEFTCRAQNPLGSQQVYLNVSLQSKATSGVTQGVVGGAGATALVFLSFCVIFVVVRSCRKKSARPAAGVGDTGIEDANAVRGSASQGPLTEPWAEDSPPDQPPPASARSSVGEGELQYASLSFQMVKPWDSRGQEATDTEYSEIKIHR",glycan array binding signal (z-score),[1],-0.423
same,glycan array binding signal (z-score),[2],-0.244
same,glycan array binding signal (z-score),[3],-0.447
same,glycan array binding signal (z-score),[4],-0.454
same,glycan array binding signal (z-score),[5],0.432
same,glycan array binding signal (z-score),[6],-0.559
same,glycan array binding signal (z-score),[7],-0.425
same,glycan array binding signal (z-score),[8],-0.201
same,glycan array binding signal (z-score),[9],0.152
same,glycan array binding signal (z-score),[10],0.062
same,glycan array binding signal (z-score),[11],-0.39
same,glycan array binding signal (z-score),[12],-0.214
same,glycan array binding signal (z-score),[13],0.565
same,glycan array binding signal (z-score),[14],-0.16
same,glycan array binding signal (z-score),[15],-0.305
same,glycan array binding signal (z-score),[16],0.063
same,glycan array binding signal (z-score),[17],-0.299
same,glycan array binding signal (z-score),[18],0.35
same,glycan array binding signal (z-score),[19],0.153
same,glycan array binding signal (z-score),[20],0.1
same,glycan array binding signal (z-score),[21],-0.434
same,glycan array binding signal (z-score),[22],-0.452
same,glycan array binding signal (z-score),[23],-0.395
same,glycan array binding signal (z-score),[24],-0.279
same,glycan array binding signal (z-score),[25],-0.348
same,glycan array binding signal (z-score),[26],-0.163
same,glycan array binding signal (z-score),[27],-0.393
same,glycan array binding signal (z-score),[28],0.178
same,glycan array binding signal (z-score),[29],0.101
same,glycan array binding signal (z-score),[30],-0.312
same,glycan array binding signal (z-score),[31],-0.217
same,glycan array binding signal (z-score),[32],-0.573
same,glycan array binding signal (z-score),[33],-0.512
same,glycan array binding signal (z-score),[34],-0.287
same,glycan array binding signal (z-score),[35],-0.182
same,glycan array binding signal (z-score),[36],-0.404
same,glycan array binding signal (z-score),[37],0.274
